The source of these data is PubChem BioAssay AID1159614 (National Center for Advancing Translational Sciences (NCATS), 2016).

Among all 45,000 compounds or so, about 65 (0.1%) were called active. Calls come from the whole dose curve; as a rule, active = well fitted activation curve with a large enough effect; inconclusive = small, poorly fitted or top-dose-only effect; inactive = no such curve, though single readings can be large or run the other way. Some of the results follow.

Chain of UniProt P54803 (P54803 whole entry, looked up): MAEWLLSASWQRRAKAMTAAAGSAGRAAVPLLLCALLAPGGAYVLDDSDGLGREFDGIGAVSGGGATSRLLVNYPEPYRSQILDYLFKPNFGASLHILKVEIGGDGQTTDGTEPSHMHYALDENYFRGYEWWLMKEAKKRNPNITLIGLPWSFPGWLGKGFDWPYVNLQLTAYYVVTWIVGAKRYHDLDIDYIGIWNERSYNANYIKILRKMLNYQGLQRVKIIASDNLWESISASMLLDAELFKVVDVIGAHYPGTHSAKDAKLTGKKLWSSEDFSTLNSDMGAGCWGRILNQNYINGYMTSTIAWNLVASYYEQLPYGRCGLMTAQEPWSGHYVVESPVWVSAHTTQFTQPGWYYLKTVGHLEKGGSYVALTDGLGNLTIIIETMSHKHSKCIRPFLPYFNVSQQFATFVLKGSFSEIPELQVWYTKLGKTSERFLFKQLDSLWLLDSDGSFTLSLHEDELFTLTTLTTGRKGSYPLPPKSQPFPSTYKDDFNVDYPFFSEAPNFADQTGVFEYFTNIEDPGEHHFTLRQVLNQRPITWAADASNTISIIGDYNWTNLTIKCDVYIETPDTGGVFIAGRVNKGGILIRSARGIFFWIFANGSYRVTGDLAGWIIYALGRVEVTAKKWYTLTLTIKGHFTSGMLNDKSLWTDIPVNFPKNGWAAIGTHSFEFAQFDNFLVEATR

This assay concerns the target Galactocerebrosidase (Homo sapiens) (UniProt P54803). In words: A Novel Cell-Based Assay to Identify Small Molecules for B -Galactocerebrosidase. Note: 0% is about no effect; nearly all actives have a fitted effect of over 65% in size. The settings on record: 145M-Twi-hGALC-G270D cells, HMU-beta-Gal fluorescence, 48 h; series mostly up to 57.5 µM; activation: at the top concentration. In short, it runs like this:
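qHTS, 1536-well; 145M-Twi-hGALC-G270D cells (WT line also made) in DMEM/F12 + 10% FBS; compound incubation on live cells; HMU-β-gal 0.1 mM final, pH 5.2, NaTC; carbonate stop; fluorescence increase = enhanced residual activity.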
Turning to `COc1ccc(-n2c(=O)c3c4c(sc3n(Cc3ccc(F)cc3)c2=O)CN(C(C)=O)CC4)c(OC)c1`, the “activation” value is inactive: -20.7%. For `CSc1ncc(C(=O)Nc2cc(C)cc(C)c2)c(-c2ccccc2)n1` the value was inactive: 4.44%; for `CCC(CC)C(=O)N1c2ccccc2C(C)(c2ccccc2)CC1(C)C` (configuration not stated), inactive: -4.78%. The value for `CCc1ccc2oc(-c3ccc(C)c(NC(=O)c4cc([N+](=O)[O-])ccc4N4CCOCC4)c3)nc2c1` was inactive: -10.9%.

As for `CCCCc1ccc(-n2nc3ccc(NC(=O)c4cc5ccccc5o4)cc3n2)cc1`, the “activation” value is inactive: -1.65%. On to `CCOC(=O)Cn1c(=O)oc2cc(S(=O)(=O)N3CCN(c4cccc(Cl)c4)CC3)ccc21`, for which the “activation” value was inactive: -20.6%. As for `CCOCCCn1c(SCC(=O)Nc2ccccc2CC)nc2ccccc2c1=O`, the “activation” value was inactive: -21.8%. Regarding `Nc1ccc(C(=O)N2CC3CC(CN(Cc4ccccc4)C3)C2)cc1`, the “activation” value is inactive: -8.59%.

On to `O=C(O)c1sc(Nc2ccccc2)nc1-c1ccccc1`, for which the “activation” value was inactive: -0.272%. The value for `CC(=O)N1CCc2c(sc3c2c(=O)n(Cc2ccccc2)c(=O)n3Cc2ccc(Cl)cc2)C1` was inactive: -9.08%; that for `CN1CCN(C(CNC(=O)c2ccc(F)cc2)c2ccc3c(c2)OCO3)CC1` (configuration not stated) was inactive: -4.16%; that for `COc1ccc(OC)c(CCNC(=O)c2c(C)oc3ncn(CC(C)C)c(=O)c23)c1` was inactive: -13.1%.

As to `Cc1cc(C)c(Cn2c(=O)n(CCC(=O)NCCc3ccccc3)c(=O)c3ccccc32)c(C)c1`, the “activation” value was inactive: -11.1%. Take `CCN(CC)c1ccc(C(=O)N2CCc3c([nH]c4ccccc34)C2c2ccc(F)cc2)cc1` (configuration not stated): the “activation” value was inactive: -4.86%. Turning to `Cc1ccc(NC(=O)c2cccc3c(=O)c4c([nH]c23)CCCC4)c(C)c1`, the “activation” value is inactive: -6.9%. For `COc1cccc(CNC(=O)c2c(C)nn(-c3ccc(F)cc3)c2-n2cccc2)c1` the value was inactive: -36.1%; for `Cc1ccc(NC(=O)Nc2nnc(SCC(=O)N(C(C)C)C(C)C)s2)cc1`, inactive: -12.7%; for `CCOC(=O)c1sc2ccccc2c1S(=O)(=O)Nc1ccc(OC)c(Cl)c1`, inactive: -11.1%. For `CCOc1ccc(NC(=O)Nc2nnc(N3CCCCC3C)s2)cc1` (configuration not stated) the value was inactive: -6.53%; for `CC(=O)c1ccc(NC(=O)Cn2c(=O)cc(C)c3c(C)nn(-c4cccc(F)c4)c32)cc1`, inactive: -1.26%. The value for `CCC(Oc1ccccc1)C(=O)Nc1cccc(OCc2cc(=O)n3cccc(C)c3n2)c1` (configuration not stated) was inactive: 10.1%; that for `CCOC(=O)c1cccc(NC(=O)CCn2c(=O)oc3ccccc32)c1` was inactive: -14.2%. On to `Cc1c(C)c2c(cc(C)c3c(-c4ccc(Br)cc4)coc32)oc1=O`, for which the “activation” value was inactive: -17.1%.

Regarding `Cc1ccc(CSc2nnc([C@@H](N)C(C)C)o2)cc1`, the “activation” value is inactive: -19.4%.

For `Cc1cccc(-c2nc3c4c(-c5ccccc5)c(-c5ccccc5)oc4ncn3n2)c1`, the “activation” value was inactive: -16.7%. Regarding `CCN(CC)c1ccc(C(=O)NCc2nc3cccnc3n2Cc2ccc(C)cc2)cc1`, the “activation” value was inactive: -5.84%. For `Cc1ccc(C2N=C(N)Nc3nc4ccccc4n32)cc1` (configuration not stated) the value was inactive: -3.39%; for `Cc1cccc(NC(=O)Cn2cc(S(=O)(=O)N3CCCC3)c(S(=O)(=O)N3CCCC3)c2)c1C`, inactive: -0.391%. `CCC1CCc2nc3sc(C(=O)Nc4cccc(F)c4)c(N)c3cc2C1` (configuration not stated): the “activation” value is inactive: -17.1%. The value for `CCOC(=O)c1c(C)[nH]c(C)c1S(=O)(=O)NCC(=O)Nc1cccc(SC)c1` was inactive: -20.6%. Turning to `COc1cccc(NC(=O)CSc2nc(C)c(Cc3ccccc3)c(=O)[nH]2)c1`, the “activation” value was inactive: -8.51%. The value for `O=C(NCC(c1cccnc1)N1CCN(c2ccccc2F)CC1)c1ccc(F)cc1` (configuration not stated) was inactive: -7.13%; that for `COc1ccc(NC(=O)c2c(NCc3cccc(F)c3)sc3c2CCC3)c(OC)c1` was inactive: -9.28%.

As for `Cc1cccc(NC(=O)c2cnc3sc(N4CCCC4)nn3c2=O)c1C`, the “activation” value was inactive: -7.66%. For `CSCCC(NS(=O)(=O)c1ccc2c(c1)oc(=O)n2C)C(=O)Nc1ccc(F)c(Cl)c1` (configuration not stated) the value was inactive: -17.3%; for `Cc1nn(C)c(C)c1S(=O)(=O)N(CC(=O)NCCc1ccc(Cl)cc1)c1ccc(C(C)C)cc1`, inactive: -14.7%; for `COc1cccc2sc(N(Cc3cccnc3)C(=O)c3ccco3)nc12`, inactive: -5.82%. Consider `COc1ccc(OC)c(CNC(=O)c2c(C)oc3ncn(CC(C)C)c(=O)c23)c1`, for which the “activation” value was inactive: -14.5%. Take `CCCCOc1ccc(C2=NC(c3cccs3)=Nc3ccc(OC)cc3N2)cc1`: the “activation” value is inactive: -14.4%. Consider `Cc1ccccc1C(=O)Nc1ccc(S(=O)(=O)N2CCC(c3nc4ccccc4s3)CC2)cc1`, for which the “activation” value was inactive: -11%. The value for `COc1cc2c(cc1OC)C(=O)CC2` was inactive: -8.19%.

Turning to `Cc1cc(C)cc(NC(=O)Cc2csc(COc3cccc(C)c3)n2)c1`, the “activation” value is inactive: -0.417%. For `COc1ccc(C)cc1NC(=O)C(=O)NCCc1sc(-c2cccc(C)c2)nc1C` the value was inactive: -17.3%; for `Cc1nn(CCCC(=O)NCc2ccccc2Br)c(=O)c2c1sc1ccccc12`, inactive: 0.836%. For `CCOc1ccc(S(=O)(=O)N(CC(=O)Nc2ccc(OC)cc2OC)c2ccccc2)cc1` the value was inactive: -5.46%; for `O=C(NCc1ccccc1F)C1CCCN(C(=O)N2CCOc3ccccc32)C1` (configuration not stated), inactive: -18.8%; for `O=C(CN1C=NS(=O)(=O)c2ccccc21)Nc1ccccc1F`, inactive: -10.5%. The value for `CCOC(=O)c1ccc(NC(=O)CCCc2nc(-c3cc(OC)c(OC)c(OC)c3)no2)cc1` was inactive: -17.7%; that for `CCCNC(=O)C1CCC(Cn2c(=O)c3sccc3n(CC(=O)NCc3ccccc3)c2=O)CC1` (configuration not stated) was inactive: -8.93%. On to `COc1ccc(Br)cc1CNC(=O)c1cc(=O)[nH]c2ccc(S(=O)(=O)N3CCCCC3C)cc12` (configuration not stated), for which the “activation” value is inactive: 3.95%. The value for `Cc1nn(C(C)C(=O)N2CCN(c3ccc(F)cc3)CC2)c(=O)c2c1sc1ccccc12` (configuration not stated) was inactive: 0.178%; that for `CCn1cc(C(=O)NCCc2ccccc2)c(=O)c2cc(S(=O)(=O)N3CCCCCC3)ccc21` was inactive: -2.16%. In the case of `COc1ccc(N2C(=O)CS(=O)(=O)C23C(=O)N(Cc2ccccc2F)c2ccccc23)cc1Cl` (configuration not stated), the “activation” value was inactive: -20.3%.

For the compound `COc1ccc(-c2nc3ccccc3o2)cc1NC(=O)COc1ccc(C)c(C)c1`, the “activation” value is inactive: -2.21%. On to `COc1ccc(OC)c(CNS(=O)(=O)c2ccc3c(c2)oc(=O)n3C)c1`, for which the “activation” value was inactive: -8.47%. The value for `COc1ccc(S(=O)(=O)N(CC(=O)N2CCc3ccccc3C2)c2ccc(C)cc2)cc1` was inactive: -6.45%; that for `CCOc1ccc(C(=O)Nc2cccc(C(=O)OCc3cc(=O)n4cc(C)sc4n3)c2)cc1` was inactive: -4.95%. The value for `Cc1cccc2nc(Cn3c(=O)n(-c4ccc(Cl)cc4)c(=O)c4c5c(sc43)CCC5)cc(=O)n12` was inactive: 0.0475%; that for `Cc1cccc(Cn2cc(S(=O)(=O)c3ccccc3)c(=O)c3cc(F)c(N4CCOCC4)cc32)c1` was inactive: -6.84%. Regarding `Cc1cccc(C)c1NC(=O)C1CCCN1S(=O)(=O)c1ccccc1` (configuration not stated), the “activation” value is inactive: -17.6%. For `CC1=C(C/C=C(\C)CCC[C@H](C)CCC[C@H](C)CCCC(C)C)C(=O)c2ccccc2C1=O`, the “activation” value was inactive: -9.08%.

Regarding `CC(=O)N1c2ccc(S(=O)(=O)N3CCC(C(=O)Nc4cccc(Cl)c4C)CC3)cc2CC1C` (configuration not stated), the “activation” value was inactive: -16.1%. For `COc1ccc(N2CCN(CCCNC(=O)c3nnc(Cc4ccc(F)cc4)o3)CC2)cc1` the value was inactive: -12.2%. On to `Cc1ccccc1OC(=O)c1nc(SCc2ccccc2F)ncc1Cl`, for which the “activation” value was inactive: -9.88%. The value for `CN(C)c1ccc(CNC(=O)Cc2ccc(NC(=O)N3CCCCc4ccccc43)cc2)cc1` was inactive: -17.2%; that for `O=C(OCCOCCO)c1ccccc1Nc1cccc(C(F)(F)F)c1` was inactive: -5.42%. As to `CCc1ccc2ncc3c(-c4ccc(F)cc4)nn(CC(=O)NC4CCCCC4)c3c2c1`, the “activation” value was inactive: -23.7%. For the compound `Cc1ccc2c(CC(=O)Nc3ccc(S(=O)(=O)N4CCCCC4C)cc3)coc2c1C` (configuration not stated), the “activation” value is inactive: -18%.

In the case of `CCOC(=O)Cn1c(=O)n(-c2cccc(Cl)c2)c2nc(-c3ccccc3Cl)nc(C(N)=O)c21`, the “activation” value was inactive: -29.4%. On to `O=C(CC1NCCNC1=O)Nc1ccc(F)c(Cl)c1` (configuration not stated), for which the “activation” value is inactive: -11.1%. Consider `NS(=O)(=O)c1cc2c(cc1Cl)NC(CC1CCCC1)NS2(=O)=O` (configuration not stated), for which the “activation” value is inactive: -7.85%. On to `O=C(CSc1nnc(CNC(=O)c2ccccc2)n1-c1ccc(F)cc1)Nc1ccccc1F`, for which the “activation” value was inactive: -8.47%. `Cc1cc(NC(=O)c2oc3c(c2C)-c2[nH]ncc2CC3)ccc1Br`: the “activation” value was inactive: 29.4%.

With `Cc1nn(-c2ccc(F)cc2)c(-n2cccc2)c1C(=O)N1CCCCC1C` (configuration not stated), the “activation” value was inactive: 13.5%. For `Cc1cc(=O)n2nc(N3CCC(C(=O)NCCCOC(C)C)CC3)sc2n1` the value was inactive: -2.28%; for `CCC(C(=O)Nc1cc(-c2cn3cccnc3n2)ccc1C)c1ccccc1` (configuration not stated), inactive: -1.13%; for `CCOCCCn1c(SCC(=O)Nc2ccc(F)cc2)nc2c(sc3ccccc32)c1=O`, inactive: 1.69%. Regarding `COc1ccccc1N1CCN(S(=O)(=O)c2ccc3c(c2)CCCN3C(C)=O)CC1`, the “activation” value was inactive: -15.1%. Take `CCCCOc1ccc(C(=O)Nc2sc3c(c2C(=O)OCC)CCCCC3)cc1`: the “activation” value was inactive: 13.4%. In the case of `COc1ccc(Nc2ncc(C(=O)Nc3ccc(F)cc3F)c3ccccc23)cc1`, the “activation” value was inactive: -16.1%. Consider `Nc1nc2nc(-c3ccccc3)cc(=O)n2[nH]1`, for which the “activation” value is inactive: -5.44%. Turning to `Cc1ccccc1CNC(=O)CN1CCSc2ccccc21`, the “activation” value is inactive: -17.9%. Consider `CC(C)(C)NCC(O)c1cc(O)cc(O)c1` (configuration not stated), for which the “activation” value is inactive: -9.05%. The value for `CCc1ccccc1-n1c(SCC(=O)Nc2ccc(C)cc2)nc2n[nH]c(C)c2c1=N` was inactive: -7.65%; that for `CCc1cccc(NC(=O)Cn2c(-c3ccc(F)cc3)cc(C(C)=O)c2C)c1` was inactive: 2.9%.

As for `O=C(c1ccc2c(c1)N(Cc1ccccc1Cl)C(=O)c1ccccc1S2)N1CCCC1`, the “activation” value was inactive: -8.37%. The value for `O=C(CSc1nc2ccccc2nc1Cc1ccc(Cl)cc1)N1CCCCC1` was inactive: -6.71%; that for `CCCCOC(=O)c1ccc(NC(=O)c2ccc3c(c2)CCCN3S(C)(=O)=O)cc1` was inactive: -45.6%; that for `Cc1ccc(NC(=O)C2CCN(S(=O)(=O)c3ccc4c(c3)CCCC(=O)N4)CC2)c(Br)c1` was inactive: -11.8%. For `COc1ccc(NC(=O)CN2CCCN(Cc3ccccc3)S2(=O)=O)cc1`, the “activation” value is inactive: -2.88%.

Regarding `Fc1ccc(CNc2nc(-c3ccc(Cl)cc3)cc(C(F)(F)F)n2)cc1`, the “activation” value was inactive: -15.6%. For `Cc1cccc(NS(=O)(=O)c2ccc3c(c2)n(C)c(=O)n3C)c1C` the value was inactive: -13.8%; for `COc1ccccc1N1CCN(c2ncc3c(n2)CCN(Cc2ccc(C)s2)C3)CC1`, inactive: -13%. Regarding `O=c1oc2ccccc2cc1-c1nc(-c2cccc(Cl)c2)cs1`, the “activation” value was inactive: -11%.

For the compound `CC[N+](CC)(CC)CCOc1cccc(OCC[N+](CC)(CC)CC)c1OCC[N+](CC)(CC)CC`, the “activation” value was inactive: -6.36%. Turning to `Cc1cccn2c(=O)cc(CSc3nnc(NC(=O)C(C)C)s3)nc12`, the “activation” value is inactive: -13.9%. For `COc1ccc(Cl)cc1NC(=O)CSc1cc(C)[nH]c(=O)n1`, the “activation” value is inactive: -17.4%.
